To fix the notation:
T1: RBFOX1 RRM RbFoxmut (Fox-RRM*) (Homo sapiens, UniProt Q9NWB1 109-208, R118D;E147R;N151S;E152T)
T1 sequence: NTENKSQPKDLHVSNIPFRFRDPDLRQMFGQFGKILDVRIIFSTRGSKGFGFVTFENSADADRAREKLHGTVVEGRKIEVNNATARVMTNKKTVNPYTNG

B1: CGUUCGC (DNA:RNA)
RNA: GGGAGACCGGAAUUCAGAUUGUCCCGUUCGCUUAAAUCCCGUCGUAGCCACCA
DNA 1: CAATCTGAATTCCGGTCTCCC
DNA 2: TGGTGGCTACGACGGGATT
B2: CGACUUA (DNA:RNA)
RNA: B1 RNA with U27A, U28C, C29U, G30U, C31A
DNA 1: CAATCTGAATTCCGGTCTCCC
DNA 2: TGGTGGCTACGACGGGATT
B3: CCGAUGG (DNA:RNA)
RNA: B1 RNA with G26C, U27G, U28A, C29U, C31G
DNA 1: CAATCTGAATTCCGGTCTCCC
DNA 2: TGGTGGCTACGACGGGATT
B4: AAGACUA (DNA:RNA)
RNA: B1 RNA with C25A, G26A, U27G, U28A, G30U, C31A
DNA 1: CAATCTGAATTCCGGTCTCCC
DNA 2: TGGTGGCTACGACGGGATT
B5: CCUCCUG (DNA:RNA)
RNA: B1 RNA with G26C, U28C, G30U, C31G
DNA 1: CAATCTGAATTCCGGTCTCCC
DNA 2: TGGTGGCTACGACGGGATT
B6: AGUCUUA (DNA:RNA)
RNA: B1 RNA with C25A, U28C, C29U, G30U, C31A
DNA 1: CAATCTGAATTCCGGTCTCCC
DNA 2: TGGTGGCTACGACGGGATT
B7: GCUCAAU (DNA:RNA)
RNA: B1 RNA with C25G, G26C, U28C, C29A, G30A, C31U
DNA 1: CAATCTGAATTCCGGTCTCCC
DNA 2: TGGTGGCTACGACGGGATT
B8: CUGGAGC (DNA:RNA)
RNA: B1 RNA with G26U, U27G, U28G, C29A
DNA 1: CAATCTGAATTCCGGTCTCCC
DNA 2: TGGTGGCTACGACGGGATT
B9: CGGAAUA (DNA:RNA)
RNA: B1 RNA with U27G, U28A, C29A, G30U, C31A
DNA 1: CAATCTGAATTCCGGTCTCCC
DNA 2: TGGTGGCTACGACGGGATT
B10: AGCAUCU (DNA:RNA)
RNA: B1 RNA with C25A, U27C, U28A, C29U, G30C, C31U
DNA 1: CAATCTGAATTCCGGTCTCCC
DNA 2: TGGTGGCTACGACGGGATT
B11: UGCUCGG (DNA:RNA)
RNA: B1 RNA with C25U, U27C, C31G
DNA 1: CAATCTGAATTCCGGTCTCCC
DNA 2: TGGTGGCTACGACGGGATT
B12: UGUCUGA (DNA:RNA)
RNA: B1 RNA with C25U, U28C, C29U, C31A
DNA 1: CAATCTGAATTCCGGTCTCCC
DNA 2: TGGTGGCTACGACGGGATT
B13: GUGCGUC (DNA:RNA)
RNA: B1 RNA with C25G, G26U, U27G, U28C, C29G, G30U
DNA 1: CAATCTGAATTCCGGTCTCCC
DNA 2: TGGTGGCTACGACGGGATT
B14: CGCGACA (DNA:RNA)
RNA: B1 RNA with U27C, U28G, C29A, G30C, C31A
DNA 1: CAATCTGAATTCCGGTCTCCC
DNA 2: TGGTGGCTACGACGGGATT
B15: AGUACCA (DNA:RNA)
RNA: B1 RNA with C25A, U28A, G30C, C31A
DNA 1: CAATCTGAATTCCGGTCTCCC
DNA 2: TGGTGGCTACGACGGGATT
B16: AAGCUAG (DNA:RNA)
RNA: GGGAGACCGGAAUUCAGAUUGUCCAAGCUAGUUAAAUCCCGUCGUAGCCACCA
DNA 1: CAATCTGAATTCCGGTCTCCC
DNA 2: TGGTGGCTACGACGGGATT
B17: UUAAGAG (DNA:RNA)
RNA: B16 RNA with A25U, A26U, G27A, C28A, U29G
DNA 1: CAATCTGAATTCCGGTCTCCC
DNA 2: TGGTGGCTACGACGGGATT
B18: CAGGAUU (DNA:RNA)
RNA: B16 RNA with A25C, C28G, U29A, A30U, G31U
DNA 1: CAATCTGAATTCCGGTCTCCC
DNA 2: TGGTGGCTACGACGGGATT
B19: CAAACGG (DNA:RNA)
RNA: B1 RNA with G26A, U27A, U28A, C31G
DNA 1: CAATCTGAATTCCGGTCTCCC
DNA 2: TGGTGGCTACGACGGGATT
B20: GGGAGCU (DNA:RNA)
RNA: B16 RNA with A25G, A26G, C28A, U29G, A30C, G31U
DNA 1: CAATCTGAATTCCGGTCTCCC
DNA 2: TGGTGGCTACGACGGGATT
B21: CAUCCAA (DNA:RNA)
RNA: B16 RNA with A25C, G27U, U29C, G31A
DNA 1: CAATCTGAATTCCGGTCTCCC
DNA 2: TGGTGGCTACGACGGGATT
B22: AUAGGAU (DNA:RNA)
RNA: B16 RNA with A26U, G27A, C28G, U29G, G31U
DNA 1: CAATCTGAATTCCGGTCTCCC
DNA 2: TGGTGGCTACGACGGGATT
B23: CGGCGCA (DNA:RNA)
RNA: B16 RNA with A25C, A26G, U29G, A30C, G31A
DNA 1: CAATCTGAATTCCGGTCTCCC
DNA 2: TGGTGGCTACGACGGGATT
B24: CGUUAGG (DNA:RNA)
RNA: B1 RNA with C29A, C31G
DNA 1: CAATCTGAATTCCGGTCTCCC
DNA 2: TGGTGGCTACGACGGGATT
B25: GUCAGCA (DNA:RNA)
RNA: GGGAGACCGGAAUUCAGAUUGUCCGUCAGCAUUAAAUCCCGUCGUAGCCACCA
DNA 1: CAATCTGAATTCCGGTCTCCC
DNA 2: TGGTGGCTACGACGGGATT
B26: UGGUUCC (DNA:RNA)
RNA: B1 RNA with C25U, U27G, C29U, G30C
DNA 1: CAATCTGAATTCCGGTCTCCC
DNA 2: TGGTGGCTACGACGGGATT
B27: GGGGGUG (DNA:RNA)
RNA: B16 RNA with A25G, A26G, C28G, U29G, A30U
DNA 1: CAATCTGAATTCCGGTCTCCC
DNA 2: TGGTGGCTACGACGGGATT
B28: AGAGAAG (DNA:RNA)
RNA: B16 RNA with A26G, G27A, C28G, U29A
DNA 1: CAATCTGAATTCCGGTCTCCC
DNA 2: TGGTGGCTACGACGGGATT
B29: UUAUUUG (DNA:RNA)
RNA: B16 RNA with A25U, A26U, G27A, C28U, A30U
DNA 1: CAATCTGAATTCCGGTCTCCC
DNA 2: TGGTGGCTACGACGGGATT
B30: GCGGCAU (DNA:RNA)
RNA: B16 RNA with A25G, A26C, C28G, U29C, G31U
DNA 1: CAATCTGAATTCCGGTCTCCC
DNA 2: TGGTGGCTACGACGGGATT
B31: GAUUCGC (DNA:RNA)
RNA: B1 RNA with C25G, G26A
DNA 1: CAATCTGAATTCCGGTCTCCC
DNA 2: TGGTGGCTACGACGGGATT

Residue numbers refer to the chain shown, from its start. The list shows a part of the results.

This assay addresses T1, RBFOX1 RRM RbFoxmut (Fox-RRM*). The experiment in a line: EMSA; HiTS-Eq, 1 nM pool, 10 min; buffer printed only for the single-RNA assays: 10 mM Tris pH 7.5, 150 mM NaCl, 3.4 mM EDTA, 0.001% NP-40, 30 C. The conditions noted are these: tags: His6 N-terminal (pET28a); label: 5' 32P. The essentials:
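Purified RbFox RRM (wild type or mutant) was equilibrated for 10 min in 50 µL with 1 nM of a 5′-radiolabelled pool of RNA with 7 randomized nucleotides, its flanks annealed to DNA oligonucleotides, across increasing protein concentrations. Free RNA was separated by 8% native PAGE, excised, reverse-transcribed, PCR-barcoded and sequenced on an Illumina HiSeq 2500. Relative association constants came from read-count changes of each variant against the control reaction, normalised to the cognate motif.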
As for B1, the binding signal was 0.117 KA relative to UGCAUGU.
B2: the binding signal was 0.111 KA relative to UGCAUGU.
As for B3, the binding signal was 0.0944 KA relative to UGCAUGU.
In the case of B4, the binding signal was 0.0896 KA relative to UGCAUGU.
On to B5, for which the binding signal was 0.0786 KA relative to UGCAUGU.
Consider B6, for which the binding signal is 0.0951 KA relative to UGCAUGU.
Regarding B7, the binding signal was 0.063 KA relative to UGCAUGU.
With B8, the binding signal was 0.103 KA relative to UGCAUGU.
B9: the binding signal was 0.153 KA relative to UGCAUGU.
In the case of B10, the binding signal was 0.302 KA relative to UGCAUGU.
On to B11, for which the binding signal is 0.153 KA relative to UGCAUGU.
Take B12: the binding signal is 0.164 KA relative to UGCAUGU.
Consider B13, for which the binding signal is 0.172 KA relative to UGCAUGU.
As for B14, the figure is 0.0568 KA relative to UGCAUGU; as for B15, 0.0629 KA relative to UGCAUGU; as for B16, 0.124 KA relative to UGCAUGU.
For the molecule B17, the binding signal was 0.0992 KA relative to UGCAUGU.
As for B18, the binding signal is 0.0826 KA relative to UGCAUGU.
Turning to B19, the binding signal was 0.0437 KA relative to UGCAUGU.
For the molecule B20, the binding signal is 0.0724 KA relative to UGCAUGU.
In the case of B21 it was 0.103 KA relative to UGCAUGU; in that of B22, 0.0745 KA relative to UGCAUGU.
B23: the binding signal is 0.126 KA relative to UGCAUGU.
As for B24, the binding signal was 0.0993 KA relative to UGCAUGU.
As to B25, the binding signal is 0.122 KA relative to UGCAUGU.
In the case of B26, the binding signal is 0.157 KA relative to UGCAUGU.
In the case of B27 it was 0.289 KA relative to UGCAUGU.
In the case of B28 it was 0.13 KA relative to UGCAUGU; in that of B29, 0.0915 KA relative to UGCAUGU.
Regarding B30, the binding signal is 0.124 KA relative to UGCAUGU.
With B31, the binding signal was 0.132 KA relative to UGCAUGU.

The record behind these values is paper PMC9911399, “Two distinct binding modes provide the RNA-binding protein RbFox with extraordinary sequence specificity”.
